This passage reports binding results from publication PMC12483278, “The viral BCL2 protein BHRF1 of Epstein–Barr virus promotes AIM2 inflammasome activation to facilitate lytic replication” (PLOS Pathogens, 2025).

Sequences of proteins named here, by UniProt entry; tags and fusion partners are left off.
UniProt Q16666: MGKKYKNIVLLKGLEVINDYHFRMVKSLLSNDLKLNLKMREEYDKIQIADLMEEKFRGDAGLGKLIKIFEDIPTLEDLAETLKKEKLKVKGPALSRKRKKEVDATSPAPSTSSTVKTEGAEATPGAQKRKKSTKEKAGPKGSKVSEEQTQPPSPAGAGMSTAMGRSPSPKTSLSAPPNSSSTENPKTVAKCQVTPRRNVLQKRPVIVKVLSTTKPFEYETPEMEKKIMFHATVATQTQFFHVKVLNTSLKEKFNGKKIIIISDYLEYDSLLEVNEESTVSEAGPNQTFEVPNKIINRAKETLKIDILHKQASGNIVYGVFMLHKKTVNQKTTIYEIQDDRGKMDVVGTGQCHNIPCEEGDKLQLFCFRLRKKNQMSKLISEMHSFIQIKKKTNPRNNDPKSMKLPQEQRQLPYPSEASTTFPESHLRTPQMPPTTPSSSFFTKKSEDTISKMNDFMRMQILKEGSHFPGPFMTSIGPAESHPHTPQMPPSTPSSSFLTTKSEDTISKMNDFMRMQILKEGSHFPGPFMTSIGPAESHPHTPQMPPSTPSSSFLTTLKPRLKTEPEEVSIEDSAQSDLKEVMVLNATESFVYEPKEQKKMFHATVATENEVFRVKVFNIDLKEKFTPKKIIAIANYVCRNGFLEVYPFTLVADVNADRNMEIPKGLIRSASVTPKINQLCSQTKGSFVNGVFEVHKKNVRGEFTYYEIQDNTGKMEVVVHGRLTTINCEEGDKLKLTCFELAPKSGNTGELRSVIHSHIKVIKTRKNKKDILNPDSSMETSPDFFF
UniProt Q9ULZ3: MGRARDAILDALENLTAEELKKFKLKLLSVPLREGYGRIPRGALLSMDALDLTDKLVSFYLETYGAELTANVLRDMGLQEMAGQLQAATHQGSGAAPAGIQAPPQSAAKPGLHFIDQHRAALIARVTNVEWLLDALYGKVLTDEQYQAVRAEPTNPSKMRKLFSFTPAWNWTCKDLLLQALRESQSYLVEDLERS
UniProt P29466: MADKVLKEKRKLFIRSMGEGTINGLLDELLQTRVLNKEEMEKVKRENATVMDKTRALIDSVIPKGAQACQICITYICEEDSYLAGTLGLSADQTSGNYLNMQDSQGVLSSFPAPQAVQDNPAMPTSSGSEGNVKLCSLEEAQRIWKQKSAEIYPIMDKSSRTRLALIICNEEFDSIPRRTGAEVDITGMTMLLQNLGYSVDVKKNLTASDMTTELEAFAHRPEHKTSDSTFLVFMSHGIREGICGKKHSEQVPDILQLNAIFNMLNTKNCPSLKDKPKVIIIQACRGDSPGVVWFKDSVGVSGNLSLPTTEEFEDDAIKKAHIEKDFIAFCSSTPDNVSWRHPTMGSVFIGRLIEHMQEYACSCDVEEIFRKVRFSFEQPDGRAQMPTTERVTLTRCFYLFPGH

The target of test [1] is T1, GST-AIM2 E186A (UniProt O14862).
T1 sequence: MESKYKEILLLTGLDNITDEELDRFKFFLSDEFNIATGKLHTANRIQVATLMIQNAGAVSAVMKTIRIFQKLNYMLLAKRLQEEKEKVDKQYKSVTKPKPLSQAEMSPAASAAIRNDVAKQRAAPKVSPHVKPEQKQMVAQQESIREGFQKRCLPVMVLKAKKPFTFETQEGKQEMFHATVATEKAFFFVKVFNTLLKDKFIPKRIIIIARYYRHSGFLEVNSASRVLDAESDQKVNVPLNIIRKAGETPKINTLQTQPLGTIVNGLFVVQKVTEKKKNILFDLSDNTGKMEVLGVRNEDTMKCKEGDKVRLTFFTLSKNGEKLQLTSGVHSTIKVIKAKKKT
The test is described as follows: co-IP.

Test [2] deals with T2, GST-AIM2 full-length (UniProt O14862).
T2 sequence: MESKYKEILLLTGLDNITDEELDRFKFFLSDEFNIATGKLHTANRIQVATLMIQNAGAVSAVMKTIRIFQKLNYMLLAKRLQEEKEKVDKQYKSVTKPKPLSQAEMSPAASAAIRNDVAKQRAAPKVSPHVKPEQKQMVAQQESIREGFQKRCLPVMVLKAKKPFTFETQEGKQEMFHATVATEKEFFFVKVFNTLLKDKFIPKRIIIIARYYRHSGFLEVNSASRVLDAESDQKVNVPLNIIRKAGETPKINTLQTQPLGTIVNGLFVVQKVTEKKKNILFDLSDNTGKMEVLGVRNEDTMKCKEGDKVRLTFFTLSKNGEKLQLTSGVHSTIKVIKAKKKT
Nature of the test: co-IP.

Test [3] deals with BHRF1 (endogenous, P3HR1 cells in lytic replication) (Epstein–Barr virus (endogenous in P3HR1)) (UniProt P03182). The test is described as follows: co-IP; P3HR1 cells left untreated or induced with TPA plus NaB for 48 h; cell lysates immunoprecipitated with an anti-BHRF1 antibody, western blotting. (Immunoblotting shows a protein as a band on a membrane.)
Test [4] deals with GST-tagged BHRF1 (Epstein–Barr virus) (UniProt P03182). The test is described as follows: co-IP.
The target in test [5] is T1, GST-AIM2 E186A. Nature of the test: co-IP; HEK293T cells transfected with GST-fused and Flag-tagged AIM2 WT or E186A alone or together for 36 h, infected with HSV-1 (MOI = 1) for 12 h; immunoprecipitation and western blotting.
Test [6] concerns the target T3, GST-AIM2 full-length, O14862.
T3 chain: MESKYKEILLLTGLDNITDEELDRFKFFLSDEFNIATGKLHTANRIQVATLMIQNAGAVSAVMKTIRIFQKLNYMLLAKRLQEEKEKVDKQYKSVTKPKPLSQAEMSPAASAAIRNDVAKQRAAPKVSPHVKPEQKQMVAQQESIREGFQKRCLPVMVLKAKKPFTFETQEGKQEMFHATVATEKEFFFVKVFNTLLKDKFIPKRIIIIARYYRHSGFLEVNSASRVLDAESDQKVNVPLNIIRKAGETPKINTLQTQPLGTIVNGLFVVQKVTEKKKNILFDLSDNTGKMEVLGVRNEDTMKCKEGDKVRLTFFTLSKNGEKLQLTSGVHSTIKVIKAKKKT
Nature of the test: pull-down; purified GST-AIM2 and Flag-AIM2-His mixed and incubated overnight at 4 °C in the presence of purified dsDNA; GST-affinity beads, western blotting; both purified. To be noted: remark: other sources report otherwise.

Test [7] shares this target. Nature of the test: co-IP; HEK293T cells transfected with GST-fused and Flag-tagged AIM2 WT or E186A alone or together for 36 h, infected with HSV-1 (MOI = 1) for 12 h; immunoprecipitation and western blotting. The note with it: remark: other sources report otherwise.

Results are given in words; binding and its absence hold for the method and conditions named. For part of these data: Binding seen in cells or lysates may run through a third protein. Some results given as binding are weak or reduced against the parent protein; the word gives no strength. For part of these data: Where a sequence is shown, tags or fusion partners need not be part of it.

As to “GFP-BHRF1 wild-type (from UniProt P03182 1-191)”, the binding result in test [1] is given as “no binding”; in test [2], “binds”.

As for “IFI16 (endogenous, P3HR1 cells) (from UniProt Q16666 1-785)”, the binding result in test [3] is on record as “no binding”. For the molecule “GFP-BHRF1 Δ157–191 (from UniProt P03182 1-156) (domain or fragment)”, in test [2], the binding entry was “no binding”. On the same count and under the same terms, to “GFP-BHRF1 fragment aa109–191 (from UniProt P03182 109-191) (domain or fragment)” belongs “binds”.

Turning to “ASC (endogenous, P3HR1 cells) (from UniProt Q9ULZ3 1-195)”, the binding result in test [3] is reported as “binds”.

For “Caspase-1 (endogenous, P3HR1 cells) (from UniProt P29466 1-404) (enzyme)”, the binding result in test [3] was “binds”. As to “Flag-tagged BHRF1 WT (from UniProt P03182 1-191)”, the binding entry in test [2] is recorded as “binds”.

As for “GFP-BHRF1 C-terminal fragment aa157–191 (from UniProt P03182 157-191) (domain or fragment)”, the binding entry in test [2] was “binds”.

B1: RIG-I (endogenous, P3HR1 cells) (protein, UniProt O95786 1-925)
chain: MTTEQRRSLQAFQDYIRKTLDPTYILSYMAPWFREEEVQYIQAEKNNKGPMEAATLFLKFLLELQEEGWFRGFLDALDHAGYSGLYEAIESWDFKKIEKLEEYRLLLKRLQPEFKTRIIPTDIISDLSECLINQECEEILQICSTKGMMAGAEKLVECLLRSDKENWPKTLKLALEKERNKFSELWIVEKGIKDVETEDLEDKMETSDIQIFYQEDPECQNLSENSCPPSEVSDTNLYSPFKPRNYQLELALPAMKGKNTIICAPTGCGKTFVSLLICEHHLKKFPQGQKGKVVFFANQIPVYEQQKSVFSKYFERHGYRVTGISGATAENVPVEQIVENNDIIILTPQILVNNLKKGTIPSLSIFTLMIFDECHNTSKQHPYNMIMFNYLDQKLGGSSGPLPQVIGLTASVGVGDAKNTDEALDYICKLCASLDASVIATVKHNLEELEQVVYKPQKFFRKVESRISDKFKYIIAQLMRDTESLAKRICKDLENLSQIQNREFGTQKYEQWIVTVQKACMVFQMPDKDEESRICKALFLYTSHLRKYNDALIISEHARMKDALDYLKDFFSNVRAAGFDEIEQDLTQRFEEKLQELESVSRDPSNENPKLEDLCFILQEEYHLNPETITILFVKTRALVDALKNWIEGNPKLSFLKPGILTGRGKTNQNTGMTLPAQKCILDAFKASGDHNILIATSVADEGIDIAQCNLVILYEYVGNVIKMIQTRGRGRARGSKCFLLTSNAGVIEKEQINMYKEKMMNDSILRLQTWDEAVFREKILHIQTHEKFIRDSQEKPKPVPDKENKKLLCRKCKALACYTADVRVIEECHYTVLGDAFKECFVSRPHPKPKQFSSFEKRAKIFCARQNCSHDWGIHVKYKTFEIPVIKIESFVVEDIATGVQTLYSKWKDFHFEKIPFDPAEMSK
In the case of B1, in test [3], the binding entry is given as “no binding”.

B2: Flag-AIM2 (protein, UniProt O14862 1-343)
chain: MESKYKEILLLTGLDNITDEELDRFKFFLSDEFNIATGKLHTANRIQVATLMIQNAGAVSAVMKTIRIFQKLNYMLLAKRLQEEKEKVDKQYKSVTKPKPLSQAEMSPAASAAIRNDVAKQRAAPKVSPHVKPEQKQMVAQQESIREGFQKRCLPVMVLKAKKPFTFETQEGKQEMFHATVATEKEFFFVKVFNTLLKDKFIPKRIIIIARYYRHSGFLEVNSASRVLDAESDQKVNVPLNIIRKAGETPKINTLQTQPLGTIVNGLFVVQKVTEKKKNILFDLSDNTGKMEVLGVRNEDTMKCKEGDKVRLTFFTLSKNGEKLQLTSGVHSTIKVIKAKKKT
On to B2, for which the binding entry in test [4] is “binds”.

B3: GST-AIM2 E186A (protein, UniProt O14862 1-343)
chain: MESKYKEILLLTGLDNITDEELDRFKFFLSDEFNIATGKLHTANRIQVATLMIQNAGAVSAVMKTIRIFQKLNYMLLAKRLQEEKEKVDKQYKSVTKPKPLSQAEMSPAASAAIRNDVAKQRAAPKVSPHVKPEQKQMVAQQESIREGFQKRCLPVMVLKAKKPFTFETQEGKQEMFHATVATEKAFFFVKVFNTLLKDKFIPKRIIIIARYYRHSGFLEVNSASRVLDAESDQKVNVPLNIIRKAGETPKINTLQTQPLGTIVNGLFVVQKVTEKKKNILFDLSDNTGKMEVLGVRNEDTMKCKEGDKVRLTFFTLSKNGEKLQLTSGVHSTIKVIKAKKKT
For B3, the binding result in test [5] was “binds”.

B4: AIM2 (endogenous, P3HR1 cells) (protein, UniProt O14862 1-343)
chain: MESKYKEILLLTGLDNITDEELDRFKFFLSDEFNIATGKLHTANRIQVATLMIQNAGAVSAVMKTIRIFQKLNYMLLAKRLQEEKEKVDKQYKSVTKPKPLSQAEMSPAASAAIRNDVAKQRAAPKVSPHVKPEQKQMVAQQESIREGFQKRCLPVMVLKAKKPFTFETQEGKQEMFHATVATEKEFFFVKVFNTLLKDKFIPKRIIIIARYYRHSGFLEVNSASRVLDAESDQKVNVPLNIIRKAGETPKINTLQTQPLGTIVNGLFVVQKVTEKKKNILFDLSDNTGKMEVLGVRNEDTMKCKEGDKVRLTFFTLSKNGEKLQLTSGVHSTIKVIKAKKKT
Regarding B4, the binding entry in test [3] is “binds”.

B5: GST-AIM2 full-length, O14862 1-343 (protein)
chain: MESKYKEILLLTGLDNITDEELDRFKFFLSDEFNIATGKLHTANRIQVATLMIQNAGAVSAVMKTIRIFQKLNYMLLAKRLQEEKEKVDKQYKSVTKPKPLSQAEMSPAASAAIRNDVAKQRAAPKVSPHVKPEQKQMVAQQESIREGFQKRCLPVMVLKAKKPFTFETQEGKQEMFHATVATEKEFFFVKVFNTLLKDKFIPKRIIIIARYYRHSGFLEVNSASRVLDAESDQKVNVPLNIIRKAGETPKINTLQTQPLGTIVNGLFVVQKVTEKKKNILFDLSDNTGKMEVLGVRNEDTMKCKEGDKVRLTFFTLSKNGEKLQLTSGVHSTIKVIKAKKKT
Consider B5, for which the binding entry in test [6] and in test [7] was “binds” throughout.
